ChEMBL document CHEMBL4888484, “Replenishing the malaria drug discovery pipeline: Screening and hit evaluation of the MMV Hit Generation Library 1 (HGL1) against asexual blood stage Plasmodium falciparum ,using a nano luciferase reporter read-out” (2022)
Screen size: about 150,000 compounds; about 540 (0.36%) showed an effect of 50% or more. Some of the results follow.

System: Plasmodium falciparum
Assay: Primary screen in NF54 nanoGlo assay, in single point, at 2uM, 72h; a lower Z score goes with more inhibition
Type: functional, Erythrocyte
Details: timepoint 72 hour

SMILES | % Inhibition [%] | Z score
CN(C)CC1CCN(C(=O)c2ccc(NC(=O)c3cc(F)cc(F)c3)cc2O)CC1 | -14 | 1.5
Cc1ccc(S(=O)(=O)NCCn2nc(-c3ccccc3)n(C3CC3)c2=O)cc1 | -7 | 1.21
COc1ccccc1-c1noc(CN2CCC[C@H]2c2cnn(C)c2)n1 | 7 | -1.08
OCCN(Cc1ccc(CO)o1)c1ccccc1 | -1 | 0.14
CCOc1cc(CN2CC[S+]([O-])CC2)ccc1OC | 6 | -1.1
O=C(C(=O)N1CCN(c2ccc(F)cc2)CC1)N1CCCCC1 | -12 | 1.45
Cc1nc([C@H](C)n2ccnc2-c2ccncc2)cs1 | 2 | -0.28
CCCc1nnc(N(C)CCC(F)(F)F)s1 | -4 | 0.39
CN(CCC1(O)CCCC1)C(=O)c1ccc(-c2ncccn2)cc1 | -23 | 2.73
Cc1ncc2c(c1-c1noc(CCCC(=O)c3ccccc3)n1)CCNC2 | -16 | 1.74
O=S(=O)(NCCOc1ncc(Cl)cc1Cl)C1COC1 | -9 | 1.29
CCOCCCNC(=O)c1nc(CCS(=O)(=O)c2ccccc2)no1 | -10 | 1.43
Cc1noc(-c2ccccc2NS(=O)(=O)c2ccccc2)n1 | -6 | 0.61
CCc1c(C(=O)N2CCN3CCN(C)C(=O)[C@@H]3C2)csc1C | 0 | -0.03
Cc1ccc(CC(=O)Nc2cc(Cl)cc(C(=O)O)c2)cn1 | -4 | 0.78
O=C(NCC(c1ccccc1Cl)N1CCOCC1)C1CC2CCC1C2 (centres undefined) | -19 | 2.45
Cc1cc(CO)cc(-c2cc3c(cc2CO)OCO3)n1 | 7 | -0.82
N#CC1CCN(C(=O)CCc2ccco2)CC1 | 2 | -0.23
CN(C)c1ccc(C[C@@H]2C(=O)N(C)c3ccc(Br)cc32)cc1 | 9 | -0.79
O=C(c1ccncc1F)N1CC(CN2C(=O)CCC2=O)C1 | 5 | -0.73
Cc1cccc(NC2CCN(S(=O)(=O)N(C)C(C)C)CC2)n1 | -3 | 0.43
Cc1cccc2c1NC(c1ccc(Cl)cc1)CC2C (centres undefined) | 3 | -0.4

SMILES | % Inhibition [%] | Z score
Cc1nn(C)c(Cl)c1-c1noc(C2CC3CCC2O3)n1 (centres undefined) | -2 | 0.25
CN(Cc1cnccn1)C[C@@H](C#N)CCC#N | -4 | 0.51
CCc1nc(CN(C)C(=O)c2ccc3c(c2)OCC(=O)N3)cs1 | -18 | 1.61
COC(=O)c1ccccc1NC(=O)c1ccc(-n2nnc3cccnc32)c(C)c1 | 4 | -0.49
COc1ccc(C2(NC[C@H]3CCCC(F)(F)C3)CCOCC2)cc1F | 1 | -0.26
COc1cccc(CN(C)c2cncc(C(=O)N(C)C)n2)c1 | -1 | 0.11
COc1ccccc1CC(C)(C)NC(=O)Cc1csc(C)n1 | -5 | 0.88
Cc1cc(C(=O)N2CC[C@@](O)(C3CCOCC3)[C@H](C)C2)c(C)o1 | -7 | 1.03
O=C(CCC1CCCC1)N1CC[C@H](n2cc(COc3cnccn3)nn2)C1 | -11 | 1.55
CC(C)c1nccc(CN2CCOC[C@@H]2CC(=O)NC2CC=CC2)n1 | 5 | -0.7
Cc1cccc(CS(=O)(=O)N2CCC(C(=O)N3CCCC3)CC2)c1 | -4 | 0.76
Cc1ccc(NC(=O)NC(=O)[C@H](C)NCC2(N3CCOCC3)CCCCC2)c(C)c1 | -11 | 2.1
CN1CCc2c(C#N)c(N3CCOCC3)nc(N3CCCCC3)c2C1 | -5 | 0.92
O=C(N[C@H]1COc2cc(F)c(Br)cc21)c1ncoc1C1CC1 | -10 | 1.98
Cc1noc([C@H]2CCCN(C(=O)c3oc4c(Cl)cccc4c3C)C2)n1 | -14 | 1.26
FC(F)(F)c1cccc(NCn2nc(-c3ccccc3)oc2=S)c1 | -4 | 0.63
CC(C)NC(=O)C[C@H](C)NC(=O)c1c(F)cccc1Br | -15 | 1.23
CCOC1CN(C(=O)c2cccc3sc(C(F)(F)F)nc23)C1 | -2 | 0.3
O=S(=O)(NC[C@]1(O)CCCc2occc21)c1ccc(-n2cccn2)cc1 | -3 | 0.39
COc1ccc(N2C(=O)C(=O)N(CC(=O)c3cc(C)n(-c4ccc5c(c4)OCCO5)c3C)C2=O)cc1 | -45 | 5.31
Cc1csc(CNS(=O)(=O)c2cccc3nn(C)nc23)n1 | -19 | 2.9
Cn1nc(CN2CCCc3c2cccc3C(F)(F)F)[nH]c1=O | -1 | 0.1

SMILES | % Inhibition [%] | Z score
CO[C@@H](C)c1ccc(-c2ncnc3sc(C)cc23)cc1 | -11 | 2.04
O=C1[C@@H]2CCN(S(=O)(=O)c3ccccc3F)CCN2C(=O)CN1Cc1ccccc1 | -10 | 1.38
O=C(NC1CC1)c1cn2c3c(cc(Br)cc3c1=O)CC2 | 6 | -0.75
C[C@]1(Cc2cccc(F)c2)CCCN1C(=O)c1cccnn1 | 2 | -0.5
O=S(=O)(NCC1(c2cccs2)CCCCC1)C1CCOCC1 | -14 | 1.6
CC1=NN(c2ccc(Cl)cc2)C(=O)C12Cc1ccc(Cl)cc1N1CCOCC12 (centres undefined) | 1 | -0.19
CCn1nnc2cc(C(=O)N3CCC(C(=O)Nc4ccc(Br)c(C)c4)CC3)ccc21 | 0 | -0.02
O=C(Nc1cccc(F)c1)[C@H]1CNCCO1 | -3 | 0.25
O=C(NC1CC2C(=O)Nc3ccccc3N2C1)c1ccc2nsnc2c1 (centres undefined) | -7 | 0.88
O=C(CS(=O)(=O)c1cccs1)NCCc1ccccc1 | -9 | 1.64
CN(Cc1ccco1)C(=O)NC1CCCC1 | 4 | -0.66
O=C1C[C@@H](C(=O)Nc2ccc3[nH]ncc3c2)CCN1 | 2 | -0.33
CCc1ccccc1Nc1c2c(nc3ccccc13)CCCC2 | 9 | -1.19
CCc1nc(-c2ccc(C(=O)NC3CCCCC3)cc2)no1 | -3 | 0.28
CC(O)(CN1CCCC1c1ccco1)c1ccc(S(C)(=O)=O)cc1 (centres undefined) | -3 | 0.32
CCN1CCN(C(=O)c2n[nH]c3c2CN(C(=O)Cc2cccc(C)c2)CC3)CC1 | 11 | -1.26
Cc1cc(C(F)F)oc1C(=O)Nc1nnnn1C1CC1 | 3 | -0.56
O=C(c1cncs1)N(Cc1ccc2c(c1)OCO2)Cc1cc2cc3c(cc2nc1N1CCC(O)CC1)CCC3 | -17 | 2.16
COCC(=O)N[C@@H]1CN(Cc2nc(C(C)C)ns2)C[C@H]1c1ccnn1C | -3 | 0.61
O=C(CC1CCCC1)NCc1nnc2ccccn12 | 15 | -1.95
CC(C)C(=O)Nc1ccc(S(=O)(=O)NCC2CCN(c3nccnc3C#N)CC2)cc1 | -19 | 3.87
CC1(C(=O)Nc2n[nH]cc2Br)CC2CCC1O2 (centres undefined) | 4 | -0.56

SMILES | % Inhibition [%] | Z score
C[C@@H](CC(F)F)C(=O)N1CCC(C)(C)C1 | -4 | 0.48
Cc1cc(Cl)ccc1CNC1(CO)CC1 | -4 | 0.42
Cc1ccc(S(=O)(=O)NCC2CCN(c3nc4ccccc4o3)CC2)cc1C | -9 | 1.41
CCOc1ccnc(NCC2(COc3ccccc3)CC2)n1 | -2 | 0.46
O=C(CCNS(=O)(=O)c1ccc(Cl)cc1)N1CCCC1 | 0 | 0.06
COc1cccc2nc(C[C@H]3CN(C(=O)c4cccc(F)c4)CC[C@H]3CC(=O)O)[nH]c12 | 0 | 0.07
CCN(Cc1nnc(-c2ccccc2)o1)S(=O)(=O)c1cnn(C(F)F)c1C | -7 | 1.15
O=C(c1ccccc1)N(Cc1cccc(Cl)c1)Cc1nc2cc(Cl)ccc2o1 | 7 | -0.73
Cc1ncsc1C(=O)N1CCC(n2nccn2)CC1 | 2 | -0.28
CC(C)c1cc(C(=O)N(C)C[C@H]2CCCCO2)no1 | 7 | -0.91
CC(C)(C)[C@@H](CO)NC(=O)Nc1nnc(C=Cc2ccco2)s1 | -4 | 0.76
O=C(NC1(C(=O)O)CCC(c2ccccc2)CC1)O[C@H]1CCOC1 (some centres undefined) | -9 | 1.46
O=C(N1CCOCC1)C(F)(F)C(F)(F)C(F)(F)C(F)(F)C(F)(F)C(F)(F)F | -8 | 1.23
COCCN1C[C@@H](NC(=O)c2ccccc2Cc2ccc(C)cc2)CC1=O | -1 | 0.24
O=C(NCc1nnc2n1CCC2)c1ccc2nc(-c3ccc(F)cc3)cn2c1 | -3 | 0.44
CC(C)C(NC(=O)COc1ccc(Cl)cc1Cl)C(C)C | 18 | -2.54
CC[C@H](NC(=O)c1cn(Cc2ccccc2F)nn1)c1nc2cc(C)ccc2[nH]1 | -16 | 2.26
CN1O[C@@H](CC(=O)NC2CCCCCC2)N(c2ccc(Cl)cc2)C1=O | 0 | -0.03
CN1CCCCCCN(S(=O)(=O)N(C)C)CCC1=O | -12 | 1.57
Nc1ccc(CN2CCn3c(Cc4ccccc4)nnc3C2)cn1 | 0 | 0.03
Cc1nn(C)cc1NC(=O)[C@@H]1CCCN(C(=O)OC(C)(C)C)[C@@H]1C | 16 | -1.82
